# Measured values published in the supplement of paper PMC3334620.
# Whole data set: some 33,000 sequences, median “E-score (-0.5 to 0.5)” near -0.035, cut for the highest 2% near 0.34. The list shows a part of the results.
# Biological target: T1, Mot3 (UniProt P54785)
# T1 sequence: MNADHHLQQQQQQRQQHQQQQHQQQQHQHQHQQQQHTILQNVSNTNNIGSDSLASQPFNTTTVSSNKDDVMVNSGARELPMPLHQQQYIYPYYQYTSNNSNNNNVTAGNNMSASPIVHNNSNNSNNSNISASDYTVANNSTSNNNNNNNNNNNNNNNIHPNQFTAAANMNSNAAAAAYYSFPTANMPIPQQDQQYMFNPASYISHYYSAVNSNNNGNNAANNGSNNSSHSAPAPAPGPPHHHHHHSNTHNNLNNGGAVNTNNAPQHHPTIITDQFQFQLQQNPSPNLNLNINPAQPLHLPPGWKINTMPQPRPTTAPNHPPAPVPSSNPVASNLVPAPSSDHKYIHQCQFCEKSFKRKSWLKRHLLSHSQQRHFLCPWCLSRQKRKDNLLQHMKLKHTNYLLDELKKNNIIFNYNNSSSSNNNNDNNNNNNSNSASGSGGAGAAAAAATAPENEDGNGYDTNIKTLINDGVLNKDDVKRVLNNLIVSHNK
# Experiment: PBM E-score (8-mer binding enrichment) (E-score (-0.5 to 0.5)); higher = stronger / more preferred TF binding; most listed sequences are background and not binding sites
# Settings: protein concentration: 200 nM; construct: GST-full length
# Outline: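 PURExpress in vitro transcription/translation supplied GST-tagged yeast transcription factors, either full-length or DNA-binding domain. Applied at about 100-200 nM to universal all-10-mer Agilent arrays double-stranded by primer extension, the bound protein was detected with fluorescent anti-GST. E-scores, modified Wilcoxon-Mann-Whitney statistics, were given by the Universal PBM Analysis Suite to ungapped eight-base words pooled with their reverse complements after masliner normalisation.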
row,Sequence,PBM E-score
1,CGCCGCGA,-0.186
2,CGTCCCAA,-0.116
3,AACAAACC,-0.0229
4,CGACTGCA,-0.0903
5,AACCGACT,-0.268
6,ACAGATGC,-0.178
7,AGTGACTA,-0.0454
8,CCGTCTAA,-0.248
9,CTGTAAGA,0.0865
10,CAGTTCAG,-0.238
11,AAAATTAC,0.23
12,ATGAAAAT,0.0798
13,ATGGCCAC,-0.184
14,TAAGAGGA,-0.0308
15,GTTGAAAA,0.189
16,AAGGCGAG,-0.268
17,ATCGAATA,-0.058
18,AGCTGCCT,0.121
19,TAAATTCA,-0.0653
20,CCACCAGA,-0.121
21,GTACATCA,0.233
22,TCATATAA,0.0305
23,AGCTTTAG,-0.137
24,CCTTGGGC,-0.102
25,CTCTAGAA,-0.173

row,Sequence,PBM E-score
1,GGGAGAGA,-0.245
2,GTATGCAA,0.0241
3,ATAAACAT,0.225
4,GAATTGGC,-0.258
5,CTGAAGAA,-0.288
6,CTCACCAC,-0.215
7,TAACCTAA,0.155
8,AACCGGTA,-0.0951
9,ACCGTGTA,0.397
10,CAATCCAC,0.00999
11,TAAGCTGA,-0.0621
12,ACGTCGAG,0.0267
13,GAACGTGC,0.119
14,GAGAGTGC,-0.0903
15,ATATGAGA,0.0438
16,CCCATTAG,-0.216
17,ACTAATTG,-0.0933
18,GGCAAACA,0.28
19,CCAGATCC,-0.247
20,CGTGCAAA,0.0889
21,GTCGAAGA,-0.0789
22,GGGCACAA,0.0559
23,ACGGTCCG,-0.126
24,GCGTGTAA,0.431
25,AACAACTC,0.00691

row,Sequence,PBM E-score
1,CGCCCTAC,0.0146
2,CGTAGACG,0.0471
3,CGACGTAC,0.131
4,CTAGTAAG,0.00559
5,CTTGAGTA,-0.0441
6,ACAGAAGG,0.0393
7,ATCTAATC,-0.0218
8,AGATCATC,0.12
9,CAGGCAGC,0.312
10,ACGCTACT,-0.0607
11,ATTTATAA,0.146
12,AGAGCTAA,-0.111
13,ACGAAGAG,0.0579
14,ACCCAACA,-0.00542
15,CTTGATTC,0.023
16,CCGGATGC,-0.24
17,AAGGAGAA,0.00568
18,ATAGTTGA,0.0134
19,ATACTCTG,0.0564
20,ATGCAAGC,-0.131
21,AAGTAGTG,0.12
22,ATTGTTGA,0.189
23,ATAACACA,0.332
24,TATCTAGA,-0.027
25,CTGGCAAC,-0.191

row,Sequence,PBM E-score
1,AGTCAGAA,-0.253
2,AGTTAGAC,0.0476
3,ATAGATCA,0.104
4,GGTAGCAA,-0.183
5,CGGCACAC,-0.21
6,ACAGCCTG,0.029
7,CATGATGG,-0.00757
8,CATATTGC,-0.105
9,CATCGGCC,-0.202
10,AGGTAGCC,0.0625
11,GAAGCAGC,-0.203
12,GGATGAAC,-0.105
13,CCGATCAA,-0.093
14,ACCAAGCG,-0.0737
15,GTCGGCCA,-0.201
16,CCCTAAAA,-0.18
17,GTTTATTA,0.247
18,ACATCCAA,0.0963
19,GTCCTCCA,-0.175
20,ACGGCACA,0.00217
21,AACGGACT,-0.119
22,CCTAGGAG,0.032
23,ATCGGAAG,0.00634
24,TAATAGTA,0.231
25,GGGCGGAA,-0.242

row,Sequence,PBM E-score
1,CACATTTC,0.139
2,GGTGCCTA,0.492
3,CAATACAA,0.243
4,CAGAGCTA,-0.319
5,AAAAGATT,-0.112
6,CGCACAAG,-0.0503
7,CTCAGTGC,0.0835
8,CGGGTACG,-0.276
9,CTTAGCCA,-0.16
10,CATAACTA,0.0106
11,GAGGAGAA,-0.228
12,CAGGGAGC,-0.309
13,CCAATTAG,-0.159
14,ATGGGACC,-0.23
15,CCCCCCAC,-0.38
16,TACATGTA,0.408
17,CCAGACTA,-0.17
18,CTCGGGAA,-0.155
19,CTAGCGCA,-0.0897
20,AGTAACAC,0.174
21,CGGGTGAA,-0.046
22,GGCCGGAC,-0.187
23,GCCAGCTA,-0.0679
24,GAGAGAAA,-0.15
25,CCCGCGCG,-0.226

row,Sequence,PBM E-score
1,TAACCGTA,0.0494
2,GGACCCAA,-0.229
3,GCTATTCA,0.0045
4,AGTCCGGG,-0.146
5,CTGCCTAC,0.264
6,CGTCGCCA,-0.205
7,ATCCAGGG,-0.281
8,ATAAATTG,0.139
9,GCTTTAAC,0.135
10,ATTGATTG,-0.027
11,AAAACGTA,0.21
12,CGTTCACC,-0.129
13,CTAGGATA,0.0667
14,ACGCTATG,-0.00824
15,CCATTCCC,-0.207
16,CGTGAACG,-0.296
17,GACTTTGC,-0.157
18,GACGGATC,-0.168
19,AATACGTG,0.259
20,AGTATCTC,0.0112
21,AAAACATA,0.314
22,ACTCGCCC,-0.179
23,GGCTCAAA,-0.194
24,CCAACCTC,-0.0519
25,AGACCAAC,-0.0934

row,Sequence,PBM E-score
1,CAAGGATG,0.121
2,CTTGGCGA,-0.105
3,AAGAGCTA,0.162
4,GCGATCAC,-0.121
5,AAAAATAT,0.0422
6,AAGAAACC,-0.00868
7,ACCATCGA,-0.00045
8,GTCAGCAA,0.0755
9,AGCCATTA,0.0474
10,TGACATCA,0.12
11,ACACGTTC,0.303
12,AATGCCGG,-0.122
13,TAATTAGA,0.0891
14,CCTGGAGC,-0.105
15,ACTATTAC,0.25
16,TATAACCA,-0.0522
17,CTAAAGTC,-0.0489
18,CTACATAA,0.228
19,GTTGCAAC,0.149
20,CATAGGCC,0.135
21,ACGGCCGG,-0.242
22,AATCTTGC,0.0579
23,TAAGCGAA,0.248
24,ACATTTGA,0.174
25,ACTGGAGA,-0.245

row,Sequence,PBM E-score
1,ATCACAAG,0.041
2,TCGATCCA,-0.00449
3,ATGCGCGA,-0.2
4,AAAGACCC,-0.119
5,ATCAGCAA,-0.218
6,ATGCTTGA,-0.0785
7,CTATGAAC,0.2
8,GAAGGCTA,0.0397
9,CGGATCCA,-0.223
10,AGTAGTCA,0.141
11,AACACCAC,0.0497
12,GCTGAAAA,0.0515
13,CACGACAA,0.125
14,CTCCCCTC,-0.126
15,AAGTACAA,0.202
16,ATCCGATA,0.00354
17,GGGTATCA,-0.174
18,AGAGGACT,-0.206
19,AGGTTTAC,0.14
20,CTCCCGGA,-0.334
21,AAGATGCG,-0.0702
22,GACGTGTA,0.318
23,AACACGAA,0.33
24,CTGAGAAA,0.0648
25,CTCTTTTC,-0.0275

row,Sequence,PBM E-score
1,AGGATTAG,0.0689
2,CCGGGACA,-0.112
3,GCTGTACC,-0.0581
4,AAGGTGCG,-0.0516
5,GGTCGTAA,0.0727
6,CGCACGCC,-0.103
7,ACTCTCTG,-0.169
8,ATTTGTTC,0.204
9,AGCTTACC,-0.148
10,GAGGTGAC,-0.0345
11,CCATCATA,-0.128
12,ACGTCACG,0.157
13,CGGAATGC,-0.151
14,AATGGCCC,-0.232
15,AATAACCT,0.0798
16,ACATTCAA,-0.103
17,AGGCATAC,0.288
18,GAGTGTCC,-0.136
19,AACGAGGG,0.0775
